# Test results reported in publication PMC4336329 (PLoS ONE, 2015).
# Out of some 310,000 compounds screened, about 14,000 (4.5%) showed an effect of 50% or more. The effect is printed as a negative number. This is one part of the list.
# Target: human ether-à-go-go-related gene (hERG) potassium channel (human, UniProt Q12809)
# Assay: primary screen, population patch clamp on CHO cells stably expressing hERG
# 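Further: peak tail current of the secondary pulse compared with the same well before compound.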
# Chain of human ether-à-go-go-related gene (hERG) potassium channel (Q12809 whole entry, looked up): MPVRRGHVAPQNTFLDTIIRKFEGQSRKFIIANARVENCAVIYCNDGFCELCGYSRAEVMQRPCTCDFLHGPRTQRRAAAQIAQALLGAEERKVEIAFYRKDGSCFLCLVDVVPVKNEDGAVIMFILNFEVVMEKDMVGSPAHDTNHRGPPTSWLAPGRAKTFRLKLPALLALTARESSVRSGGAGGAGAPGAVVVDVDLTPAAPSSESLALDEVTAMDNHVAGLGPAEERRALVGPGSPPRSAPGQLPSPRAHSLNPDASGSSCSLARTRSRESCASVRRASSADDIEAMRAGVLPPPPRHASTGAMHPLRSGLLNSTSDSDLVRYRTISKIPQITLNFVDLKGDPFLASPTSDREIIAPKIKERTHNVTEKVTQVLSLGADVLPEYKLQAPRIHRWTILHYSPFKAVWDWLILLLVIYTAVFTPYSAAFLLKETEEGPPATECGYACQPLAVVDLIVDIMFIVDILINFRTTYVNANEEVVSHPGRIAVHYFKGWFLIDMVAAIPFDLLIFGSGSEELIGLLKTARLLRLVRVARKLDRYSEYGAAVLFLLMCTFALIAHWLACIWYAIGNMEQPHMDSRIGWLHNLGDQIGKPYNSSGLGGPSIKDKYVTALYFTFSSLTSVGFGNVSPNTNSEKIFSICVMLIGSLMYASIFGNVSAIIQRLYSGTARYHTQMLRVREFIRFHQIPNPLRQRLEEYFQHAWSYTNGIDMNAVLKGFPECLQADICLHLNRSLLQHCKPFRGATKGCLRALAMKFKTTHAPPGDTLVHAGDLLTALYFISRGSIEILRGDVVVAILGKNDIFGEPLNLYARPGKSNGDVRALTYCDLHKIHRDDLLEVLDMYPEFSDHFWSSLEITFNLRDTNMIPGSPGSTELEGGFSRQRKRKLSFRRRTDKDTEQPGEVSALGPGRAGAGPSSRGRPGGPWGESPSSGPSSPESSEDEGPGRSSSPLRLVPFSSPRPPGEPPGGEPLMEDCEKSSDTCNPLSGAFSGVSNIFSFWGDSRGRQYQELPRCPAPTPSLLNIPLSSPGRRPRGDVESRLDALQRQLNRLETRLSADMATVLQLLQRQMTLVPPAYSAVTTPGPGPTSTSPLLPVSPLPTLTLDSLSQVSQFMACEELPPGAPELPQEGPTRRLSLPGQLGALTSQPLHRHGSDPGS
row,SMILES,"hERG current change (%, negative = inhibition) at 10uM [%]"
1,CCOC(=O)CNC(=O)CSc1nnc(NC(=O)c2ccc(C)cc2)s1,-3.25
2,Cc1ccc(S(=O)(=O)Nc2ccc(Br)cc2C(NCC(=O)O)c2ccccc2)cc1 (centres unmarked),-12.4
3,COc1ccc(C(=O)CCS(=O)(=O)c2ccc(C)cc2)cc1,8.78
4,COC(=O)c1ccc(Cl)c(NS(=O)(=O)c2ccc3c(c2)OCCO3)c1,-25.4
5,O=C1c2ccccc2C(=O)N1Cc1cc(-c2ccccc2Cl)no1,-2
6,O=C(Nc1ccccc1-c1nnn(CC(=O)N2CCCc3ccccc32)n1)c1ccc(Cl)cc1,8.92
7,COc1ccc(OC)c(CN2CCN(CCCc3ccccc3)C(CCO)C2)c1 (centres unmarked),-68.6
8,Cc1ccc(/C=C2/Sc3ccc(C(=O)N4CCN(C)CC4)cc3NC2=O)cc1,-2.6
9,CCc1sc(C(=O)NC)cc1Br,-1.03
10,COc1ccc(N(CC(O)CN2C(=O)NC(C)(C)C2=O)S(=O)(=O)c2ccccc2)cc1 (centres unmarked),-17.7
11,CC(NC(=O)C(C)N1C(=O)c2cccc([N+](=O)[O-])c2C1=O)c1ccccc1 (centres unmarked),25.9
12,CN(c1cccc(NC(=O)CN(c2cccc(Cl)c2)S(=O)(=O)c2ccccc2)c1)S(C)(=O)=O,11.6
13,O=C(NCc1ccco1)c1ccc(Oc2ccccc2)cc1,-30.5
14,CN(NC(=O)C(C)(C)C)c1nc(-c2ccccc2)nnc1C(F)(F)F,-4.05
15,Cc1c(NC(=S)NC(NC(=O)C(C)C)C(Cl)(Cl)Cl)c(=O)n(-c2ccccc2)n1C (centres unmarked),-1.45
16,CCCn1ncc(CN2CCC(n3nccc3NC(=O)c3ccccc3OC)CC2)c1C,-79.2
17,O=C(Nc1nc2ccccc2n1CCOc1ccccc1)c1ccco1,-2.07
18,CCc1ccccc1S(=O)(=O)c1c(C)cc(C)nc1Cl,10.3
19,O=C(COc1ccccc1)Nc1nc(-c2ccc(S(=O)(=O)N3CCOCC3)cc2)cs1,1.77

row,SMILES,"hERG current change (%, negative = inhibition) at 10uM [%]"
1,Cc1nc([N+](=O)[O-])cn1CCCCN1C(=O)c2ccccc2C1=O,6.42
2,CC(=O)CCC(=O)c1ccc2ccccc2c1,-12.1
3,CCOc1ccccc1Nc1cc(C)nc2ccc(C)cc12,-70.1
4,CCCCc1ccc(NC(=S)Nc2ccc(Nc3ccc(OC)cc3)cc2)cc1,7.1
5,Cc1cccc(C(=O)Nc2c3c(nn2C(C)(C)C)CS(=O)(=O)C3)c1,14.9
6,O=C(CC(c1ccccc1)c1cc(Cl)ccc1O)NCCN1CCOCC1 (centres unmarked),-42.1
7,c1ccc(-c2cc3ncccc3cn2)cc1,4.36
8,N#CC(C(=O)O)=C1CCCC1,-11.4
9,Cc1cc(C)cc(OCc2ccc(C(=O)N3N=C(C(F)F)CC3(O)C(F)F)o2)c1 (centres unmarked),-11
10,Cc1ccc(OS(=O)(=O)c2ccccc2)c(/C=N/N=C2\NC(=O)C(C)S2)c1 (centres unmarked),-0.524
11,CC(C)(C)c1ccc(OCC(O)CN2CCOCC2)cc1 (centres unmarked),-3.19
12,C=CCn1c(O)c(C(C)=NCc2cc(OC)cc(OC)c2)c(=O)[nH]c1=O,-37
13,Cc1ccc(CSCC(Nc2ccc(C(=O)O)cc2[N+](=O)[O-])C(=O)O)cc1 (centres unmarked),6.66
14,CS(=O)(=O)N1CCN(c2cnn(-c3ccccc3)c(=O)c2Cl)CC1,-0.644
15,O=C(Nc1ccccc1F)c1ccc2snnc2c1,15
16,COc1cccc(NC(=O)CCC2CCN(C(=O)C3CC=CCC3)CC2)c1 (centres unmarked),-1.57
17,COc1cc(NC(=O)CSCC(=O)N(C)C2CCCCC2)cc(OC)c1,5.36
18,Cc1ccccc1C(=O)Nc1cccc(NC(=S)NC(=O)c2cccs2)c1,11.4
19,Cc1ccc(C(=O)N(CC#N)CC#N)cc1C,0.632

row,SMILES,"hERG current change (%, negative = inhibition) at 10uM [%]"
1,O=C(N1CCCCC1)N1CCN(C(c2ccccc2)c2ccccc2)CC1,-12
2,CCc1ccccc1OCC(=O)Nc1cccc(S(=O)(=O)NCc2ccco2)c1,-13.4
3,CCOC(=O)c1ccccc1NC(=O)[C@@H]1CCCN1C(=O)OC(C)(C)C,-21.8
4,Cc1nc(SC2CC(=O)N(c3ccccc3)C2=O)n[nH]1 (centres unmarked),-0.898
5,Cc1ccc(S(=O)(=O)NCC(=O)N2CCCC2)cc1,4.77
6,Cc1ccc(C(=O)NC(=S)Nc2nc(-c3cccc([N+](=O)[O-])c3)cs2)c(Cl)c1,7.09
7,COc1ccc(C(=O)Nc2nc3ccccc3[nH]2)cc1OC,-6.47
8,COc1cccc(COC(=O)c2cc(S(=O)(=O)N3CCCCC3)ccc2N2CCOCC2)c1OC,8.27
9,O=C(CSc1nnc(-c2cccnc2)o1)Nc1ccccn1,9.65
10,CCOC(=O)c1c(C)n(Cc2ccc(F)cc2)c2ccc(O)cc12,3.51
11,CCOc1ccc(C(=O)Nc2nccs2)cc1[N+](=O)[O-],-22
12,COCCCNC(=O)CSc1nc2c(sc3ccccc32)c(=O)n1CCCC(=O)NCC1CCCO1 (centres unmarked),-14.4
13,CC(=O)[C@@]1(O)CC[C@H]2[C@@H]3CC=C4C[C@@H](O)CC[C@]4(C)[C@H]3CC[C@@]21C,3.18
14,CCCCC(CC)C1OCC(CN2CCCCC2)O1 (centres unmarked),-7.71
15,Cc1ccc(-c2cc(C(=O)N3CCC4(CC3)OCCO4)no2)cc1,-7.31
16,S=c1[nH]nc(Nc2cccc3ccccc23)s1,16.3
17,O=C(NNC(=O)c1ccc(Oc2cc(Cl)cc(Cl)c2)o1)c1ccccc1,6
18,O=C(COC(=O)CC1CC2CCC1C2)NC(=O)NC1CCCC1 (centres unmarked),14
